In the supplement of paper PMC10126150:
Values marked as one replicate rest on one cluster of the flow cell; about a third of the high ones do not repeat.

Test system: ATP
Test: switch fluorescence ratio, 500 uM ATP over buffer (Cy3 cluster intensity, sum of 5 cycles each) (fold (ratio)); higher = stronger signal-on switching upon ATP binding; sequences stand for … in TCGTCGGCAGCGTCAGATGTGTATAAGAGACAGTTTTTTTTTTTTTTTTTTTTTTTTT…TC
Conditions: aptamer strand: ATP DNA aptamer (quencher-CACCTGGGGGAGTATTGCGGAGGAAGG + anchor), 100 nM annealed; ATP concentration: 500 uM; one replicate
Outline: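 Between each of five buffer/ATP cycles, the flow-cell was stripped with NaOH and re-annealed. Each cycle imaged Cy3-labelled switching-strand clusters, annealed to 100 nM quencher-labelled ATP aptamer on a modified Illumina MiSeq flow-cell, first in selection buffer and then after 15 min with 500 uM ATP at 22 °C. The fluorescence ratio is summed target-cycle over summed buffer-cycle Cy3 intensity per cluster, averaged per switch-domain sequence, with clusters outside 100-1000 RFU excluded.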
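Further: ATP exposure 15 min at 22 °C before imaging.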

Sequence | switch fluorescence ratio
ATTACGAAGC | 1.37
ATTACGTC | 0.947
ATTACGTCTA | 1.01
ATTACTAGTA | 1.02
ATTACTGGAG | 1.03
ATTACTTCAT | 0.988
ATTAGACGCT | 1.04
ATTAGATTAC | 1.04
ATTAGCTTTC | 1.16
ATTAGTCGGC | 0.999
ATTAGTCGTG | 0.984
ATTAGTTCGA | 0.951
ATTATAGAT | 1.02
ATTATCATCT | 1.01
ATTATCTCCA | 1.01
ATTATGCGTT | 0.953
ATTATGGTCC | 0.949
ATTATGTGTT | 1.03
ATTCAAAG | 1.05
ATTCAATAT | 1.03
ATTCAATCAT | 1
ATTCACAGCG | 0.977
ATTCAGAATT | 1.02
ATTCAGATA | 1.05
ATTCAGATTG | 1.01

Sequence | switch fluorescence ratio
ATTCAGTCGA | 0.955
ATTCATATAT | 1.04
ATTCCACGTT | 1.04
ATTCCAGGAG | 1.12
ATTCCGTGCG | 1.19
ATTCCTAATG | 1.04
ATTCCTAGAG | 1.01
ATTCGAACCT | 1.27
ATTCGACCGC | 1.44
ATTCGACGCC | 2.16
ATTCGACGCT | 1.49
ATTCGACGT | 0.958
ATTCGCTGCG | 1.04
ATTCGGAGCT | 1.17
ATTCGGATTG | 0.965
ATTCGGCCGA | 0.975
ATTCGGGCTA | 0.998
ATTCGGGGTA | 0.962
ATTCGGGTCA | 0.981
ATTCGTCCAA | 1.05
ATTCGTTGTG | 0.944
ATTCTAAAAG | 0.996
ATTCTGACAA | 1.07
ATTCTGGCCG | 0.994
ATTCTGTATA | 1.04

Sequence | switch fluorescence ratio
ATTCTTATAG | 1.03
ATTCTTTATA | 0.974
ATTGAAAGGG | 0.998
ATTGAAGAGC | 0.922
ATTGAATCTT | 1.01
ATTGAATTTC | 1.01
ATTGACATTC | 1.07
ATTGACGTTA | 1.05
ATTGACTTGG | 1.05
ATTGATTCGA | 0.973
ATTGCACACA | 1.08
ATTGCAGTCC | 1.01
ATTGCCGATG | 0.965
ATTGCGCCTA | 0.94
ATTGCGCGCA | 1.01
ATTGCGTTAA | 0.972
ATTGCTACAG | 1.01
ATTGCTACGG | 1.05
ATTGGAAACA | 1.03
ATTGGAAAGC | 1.03
ATTGGAGCGG | 0.925
ATTGGAGGAA | 1.05
ATTGGGATAG | 0.997
ATTGGGGCAT | 1.02
ATTGGGGCTA | 0.966

Sequence | switch fluorescence ratio
ATTGGTGAAC | 1
ATTGTACCGG | 1.04
ATTGTAT | 0.937
ATTGTATAGT | 1.05
ATTGTATTCG | 1.05
ATTGTCACGC | 1.08
ATTGTGACTT | 0.964
ATTGTGGTCG | 0.99
ATTGTTAAAC | 1.01
ATTGTTAGGT | 1.02
ATTGTTGGCG | 1.06
ATTTAACTGA | 0.989
ATTTAATTCC | 1.08
ATTTACAAAG | 0.997
ATTTACTATT | 0.975
ATTTACTTCA | 1.08
ATTTAGTAAG | 0.991
ATTTATAGGC | 0.98
ATTTATATGG | 0.996
ATTTATTTTC | 0.993
ATTTCCGCGC | 2.81
ATTTCTGGCG | 0.982
ATTTGAAATT | 0.971
ATTTGACAAA | 1.01
ATTTGAGAGG | 0.959

Sequence | switch fluorescence ratio
ATTTGATTGG | 1.02
ATTTGCGTGC | 1.01
ATTTGGTCTG | 0.999
ATTTGTCGGA | 1
ATTTGTGCTA | 1.02
ATTTTACCGG | 1.01
ATTTTCATAA | 0.976
ATTTTCCACA | 1.05
ATTTTCTAAC | 0.952
ATTTTCTCAA | 0.995
ATTTTGACG | 1.01
ATTTTGGTAA | 0.989
ATTTTGTCAA | 1.03
ATTTTGTCGA | 0.933
ATTTTTCAAG | 0.987
ATTTTTCTCT | 1.03
CAAAAAAGGC | 1.05
CAAAACATAT | 1
CAAAAGTGAG | 0.998
CAAAAGTTTC | 0.989
CAAACCGTAC | 2.4
CAAACGAAAT | 1.24
CAAACGTCGA | 1.2
CAAACTTTAT | 0.995
CAAAGAACGG | 1.04

Sequence | switch fluorescence ratio
CAAAGACGTT | 0.993
CAAAGATAAC | 1.02
CAAAGCCATG | 1.03
CAAAGGCGGC | 0.976
CAAAGGGTTC | 1.04
CAAAGTACAT | 1.17
CAAAGTCGTT | 0.995
CAAAGTCTAT | 1.01
CAAATAAAGT | 1
CAAATAGGGT | 0.949
CAAATATTT | 1
CAAATCGCAG | 1.08
CAAATCTAA | 0.973
CAAATGGCCT | 1.07
CAAATTAAGG | 0.999
CAAATTGCGG | 1.03
CAACAAGCTT | 1.03
CAACAATGAA | 1.02
CAACCGAGGT | 1.05
CAACCGCGGT | 1.91
CAACGACCGA | 1.27
CAACGCCGC | 1.41
CAACTATCAA | 0.963
CAACTCGTAA | 1.05
CAACTCTTTA | 1.03

Sequence | switch fluorescence ratio
CAACTGATGC | 1
CAAGAAAGTA | 1.09
CAAGAAGGTT | 0.978
CAAGAATGAC | 1.04
CAAGACGGCT | 1.02
CAAGACGTGC | 1.1
CAAGAGAGAA | 0.936
CAAGAGCGGG | 0.999
CAAGAGTCCT | 1
CAAGAGTTTA | 0.972
CAAGATGTTA | 1.02
CAAGATTATG | 1.02
CAAGCCCGGG | 1.17
CAAGCGAAAA | 1.06
CAAGCGCGAC | 1.15
CAAGCGGGCA | 1.03
CAAGCTAACG | 1.05
CAAGCTAGA | 0.999
CAAGCTCTGG | 1
CAAGCTTGGT | 0.951
CAAGGAGAGA | 0.976
CAAGGCAGGG | 0.988
CAAGGCGCGC | 0.979
CAAGGCTAA | 1.05
CAAGGGCTAC | 1.05

Sequence | switch fluorescence ratio
CAAGGGGTGT | 0.999
CAAGGGGTTC | 0.948
CAAGGGTACA | 1.04
CAAGGTCGGT | 0.967
CAAGGTGGTA | 1.04
CAAGGTTTTG | 1.01
CAAGTAAATT | 1.03
CAAGTAACGA | 1
CAAGTACCAG | 1.27
CAAGTCCCGG | 0.997
CAAGTGAGTG | 0.979
CAAGTGCGCC | 0.978
CAAGTTATGG | 0.952
CAAGTTGTCT | 1.06
CAAGTTTATG | 0.999
CAATAAGCCA | 1.01
CAATAAGTAC | 1.49
CAATACTTCG | 1.18
CAATAGAGCA | 1.03
CAATAGTAAT | 1.05
CAATATTGAA | 1.03
CAATCAAGCC | 0.976
CAATCATACG | 1.02
CAATCCGATC | 1.21
CAATCCGGGG | 0.963
